In article PMC1950564, “CD100 on NK Cells Enhance IFNγ Secretion and Killing of Target Cells Expressing CD72” (PLoS ONE, 2007):

Biological target: T1, human CD72 (human, UniProt P21854 1-359)
T1 sequence (looked up): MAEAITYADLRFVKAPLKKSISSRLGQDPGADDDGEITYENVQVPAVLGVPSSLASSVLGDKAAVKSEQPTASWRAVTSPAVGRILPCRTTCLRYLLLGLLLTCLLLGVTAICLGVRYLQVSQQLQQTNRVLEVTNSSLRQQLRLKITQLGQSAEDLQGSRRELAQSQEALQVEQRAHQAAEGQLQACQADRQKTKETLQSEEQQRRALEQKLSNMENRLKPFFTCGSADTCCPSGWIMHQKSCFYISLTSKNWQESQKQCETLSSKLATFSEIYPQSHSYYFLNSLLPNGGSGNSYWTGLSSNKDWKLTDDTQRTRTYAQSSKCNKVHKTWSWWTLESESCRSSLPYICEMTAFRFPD
Experiment: cell-based or functional assay

B1: CD100 (Semaphorin 4D) (natural protein)
chain: not shown
modifications: surface radioiodinated (125I) in the YTS immunoprecipitation
  lysis of BW/CD72 versus parental BW cells by IL-2 activated NK cells (35S release, several E:T ratios): 64 % more
